# In all, about 33,000 sequences were measured (“E-score (-0.5 to 0.5)”: median about -0.021, highest 2% from about 0.32 on). This is one part of the list.
# Target: T1, Zap1 (UniProt P47043)
# T1 sequence: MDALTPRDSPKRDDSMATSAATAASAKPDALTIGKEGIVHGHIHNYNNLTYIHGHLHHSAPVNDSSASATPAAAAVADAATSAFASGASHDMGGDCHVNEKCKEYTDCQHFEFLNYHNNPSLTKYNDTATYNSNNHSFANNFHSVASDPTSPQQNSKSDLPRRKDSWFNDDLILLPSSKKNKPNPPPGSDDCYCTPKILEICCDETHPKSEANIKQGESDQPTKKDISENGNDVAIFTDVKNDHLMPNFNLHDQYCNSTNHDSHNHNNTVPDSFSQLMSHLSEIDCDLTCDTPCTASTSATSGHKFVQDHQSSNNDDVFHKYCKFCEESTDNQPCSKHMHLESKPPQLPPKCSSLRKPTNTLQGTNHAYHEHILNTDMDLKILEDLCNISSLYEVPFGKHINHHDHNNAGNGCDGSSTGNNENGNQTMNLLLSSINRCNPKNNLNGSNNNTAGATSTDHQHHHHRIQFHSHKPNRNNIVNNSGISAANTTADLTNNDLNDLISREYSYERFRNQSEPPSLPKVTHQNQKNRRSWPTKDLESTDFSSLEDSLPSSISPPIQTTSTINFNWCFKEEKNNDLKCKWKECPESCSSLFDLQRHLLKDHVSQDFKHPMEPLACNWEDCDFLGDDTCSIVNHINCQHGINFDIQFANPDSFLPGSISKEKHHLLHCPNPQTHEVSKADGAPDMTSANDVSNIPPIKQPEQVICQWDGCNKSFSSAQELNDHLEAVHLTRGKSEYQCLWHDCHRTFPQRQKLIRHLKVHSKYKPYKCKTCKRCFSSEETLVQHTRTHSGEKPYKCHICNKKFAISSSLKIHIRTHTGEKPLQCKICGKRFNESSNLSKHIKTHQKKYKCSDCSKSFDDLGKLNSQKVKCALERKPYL
# Experiment: PBM E-score (8-mer binding enrichment) (E-score (-0.5 to 0.5)); higher = stronger / more preferred TF binding; most listed sequences are background and not binding sites
# Details: protein concentration: 200 nM; construct: GST-full length
# Experimental: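 Universal 'all 10-mer' protein binding microarrays (Agilent AMADID 015681) probed with GST-tagged S. cerevisiae TFs (full-length or DBD) made by in vitro transcription/translation (PURExpress), about 100-200 nM. Bound TF was detected with fluorescent anti-GST. Each ungapped 8-mer (which stands for itself and its reverse complement) is scored by the PBM enrichment score (E-score), a modified Wilcoxon-Mann-Whitney statistic from -0.5 to +0.5, computed with the Universal PBM Analysis Suite. Scale: above 0.35 generally sequence-specific binding.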
row,Sequence,PBM E-score
1,AGGTATAG,0.209
2,GCGTAGGA,-0.212
3,CTGAACAC,0.197
4,AGCCATCC,-0.154
5,AGCTGGGA,-0.303
6,CACAGCCA,-0.0278
7,AGGCCGTC,-0.121
8,GAGTACCC,0.342
9,CGCCCAGC,-0.209
10,GCAACGCC,-0.161
11,ATATTAAG,0.126
12,AACGGCCA,0.145
13,CACTGGTC,-0.0725
14,AAAACTTT,0.128
15,AAATGACC,0.317
16,ACACGCGT,0.11
17,CGGTTACC,0.444
18,GCGTCAAA,0.0983
19,AGTTGCTC,-0.182
20,CGAAACGC,-0.2
21,AGTAGCGG,-0.125
22,GAATGCCA,-0.103
23,ACCAGTGG,0.0092
24,ACAGACAG,0.144
25,GACGTCGA,-0.0298

row,Sequence,PBM E-score
1,ACTGTCGA,-0.0508
2,GGCCTAAA,-0.0802
3,ATCCTTTC,-0.129
4,CCGATCTA,-0.0785
5,ACAGTGGT,0.185
6,GGCGGGGA,0.134
7,AGAACTAG,-0.0303
8,TCGCGCGA,0.196
9,TAACGTTA,0.118
10,ATTGATCC,-0.045
11,AGATCCAA,0.042
12,CGAATACC,0.167
13,CAAGTGCG,-0.0607
14,AGGCCGGG,-0.0878
15,AGATCTCC,-0.307
16,CGCAGAAG,-0.0593
17,ATACCGGA,-0.0537
18,GGGTCGAA,0.195
19,GCCTTGTA,-0.069
20,CTATCGCA,-0.0753
21,ATGTGACA,0.129
22,CCCAATCA,0.0881
23,CGTAGGTA,0.178
24,GAGCCACA,-0.0771
25,CGCCAAAG,-0.0147

row,Sequence,PBM E-score
1,ATAGATTG,0.119
2,AAACTCAC,-0.025
3,ACGACTGC,-0.037
4,CTGTGCTA,-0.0547
5,AACCCTGA,0.461
6,TACAAACA,0.265
7,TTGCCAAA,0.0251
8,CCCTCGCC,-0.0175
9,CATGCCTA,-0.109
10,AACGCCAG,-0.055
11,ATCGATTG,-0.0139
12,GCAAGGGC,-0.228
13,CTTATGCC,0.104
14,CACGCGCG,-0.155
15,CCGGCACC,-0.0823
16,ACCTGTAG,0.0245
17,CATCCCGG,-0.251
18,ATGTGCCG,-0.166
19,GTGGCAGA,-0.315
20,ATAAGAGG,-0.0341
21,ACAAGAAG,0.231
22,CGAAATTA,0.0048
23,GAACATGA,0.0971
24,CCGCTTAC,-0.0249
25,CAGGCTGG,-0.168

row,Sequence,PBM E-score
1,CTAATCCC,0.0369
2,AAGCACAC,-0.193
3,ATCCCGGC,-0.152
4,CTATCGGA,0.00899
5,AAAGCGCG,-0.0105
6,GCAATATA,0.0538
7,CTAGACCC,-0.0629
8,TGTTTCAA,0.225
9,ATTTCCGA,0.0192
10,AAGTCTGC,-0.222
11,AAACAGCA,0.0469
12,AACAAAGA,0.0702
13,CTGGAGTA,-0.0302
14,CTGTGCGA,-0.128
15,CGTGAGTC,-0.324
16,CGCCCATC,-0.171
17,CAACACGC,-0.167
18,GCTACGGA,-0.156
19,AGACTTCG,-0.271
20,ACGCCTAA,-0.0172
21,ACCCCCAA,-0.0064
22,AGTTCTGC,-0.178
23,AAACCTCC,-0.0251
24,CGCGTACG,-0.102
25,ACTAATAA,0.193

row,Sequence,PBM E-score
1,CGATCTAG,-0.0463
2,ACTCCGAT,-0.161
3,ATGGGCTC,0.00514
4,AGACCTTG,0.0826
5,ACGGAACA,-0.0983
6,CAAGCTTC,-0.132
7,ACCGGCTG,0.024
8,CTTACTGC,-0.166
9,CATACCCC,0.348
10,ACCGCGAA,0.359
11,GCGACGTA,-0.0634
12,GTTATCAA,0.203
13,CCAATAAC,0.297
14,GCCCCTCA,-0.12
15,GGTCATAC,0.313
16,AACGTGAA,0.0028
17,CTTATGGA,0.0448
18,ATCAGCGA,0.00112
19,ATCGATCG,-0.118
20,ATGATGGA,-0.0025
21,AATAGCTC,-0.301
22,CGACACGC,-0.0689
23,GGCTAACC,0.0105
24,GCTCGTCA,-0.215
25,AAACTAAA,0.187

row,Sequence,PBM E-score
1,ACAGCTAC,-0.119
2,GAAGAAAC,0.0174
3,CTAATGTA,0.14
4,ATAACGCA,0.0731
5,TAACCACA,0.417
6,GTAGGTAA,0.199
7,CCGGAAAG,0.0082
8,CATCGCTA,0.086
9,TGTAAACA,0.122
10,CGGGAAAG,-0.321
11,ACGGTCAT,0.359
12,CTTCTGTC,-0.109
13,CTCTGACC,0.057
14,ACATGTAC,-0.00528
15,CGCATTTC,0.0517
16,GCATACCA,-0.0787
17,ACCCCCGA,-0.071
18,ACCCATGA,0.176
19,ACGGATGC,-0.0525
20,TGGATCAA,-0.0172
21,CCAAATCA,0.0196
22,GGGAACTA,0.00638
23,GGACGTAA,-0.0324
24,CACGGAGC,-0.205
25,AGAGTGGC,-0.141

row,Sequence,PBM E-score
1,GGCTCCAA,-0.152
2,GATGAAGA,-0.157
3,GAGCCCGC,-0.354
4,ATCGCATC,-0.0331
5,CAGTCGAC,0.104
6,ATAGACCC,0.155
7,AGTCTGTA,-0.0875
8,ATAATGAC,-0.168
9,AGGTTGAG,0.0807
10,TGTCCGAA,0.0316
11,AACTTCGC,0.011
12,CTGCGCCA,-0.151
13,ACAGGAGC,-0.122
14,CTGTTTTC,-0.0833
15,AACCTCTA,0.351
16,GTGCGGTA,0.217
17,CCAGCAGG,-0.111
18,CTTACTCA,-0.219
19,AGTAGAGC,-0.211
20,AGCTCAAT,-0.092
21,AACTGGAG,-0.103
22,AGGTCTGC,-0.175
